# In PMC3317646, “Interaction of Chandipura Virus N and P Proteins: Identification of Two Mutually Exclusive Domains of N Involved in Interaction with P” (PLoS ONE, 2012):
# Chains of the proteins cited; added tags and fusions are not shown. Lines headed by an entry give the natural chain unless they say otherwise; changes in a name come on top. Residues count along the entry.
# UniProt P11211: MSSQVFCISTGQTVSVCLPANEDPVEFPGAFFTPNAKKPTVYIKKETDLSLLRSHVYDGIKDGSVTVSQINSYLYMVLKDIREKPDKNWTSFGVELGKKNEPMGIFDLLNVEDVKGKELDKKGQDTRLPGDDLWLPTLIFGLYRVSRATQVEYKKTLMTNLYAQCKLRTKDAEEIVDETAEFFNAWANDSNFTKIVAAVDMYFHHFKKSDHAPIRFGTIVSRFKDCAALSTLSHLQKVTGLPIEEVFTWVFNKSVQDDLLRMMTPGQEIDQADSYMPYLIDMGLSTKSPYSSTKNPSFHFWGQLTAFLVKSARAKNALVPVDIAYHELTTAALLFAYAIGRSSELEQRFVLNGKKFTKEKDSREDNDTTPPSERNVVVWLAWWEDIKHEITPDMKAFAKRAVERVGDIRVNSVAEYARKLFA
# UniProt P02769, residues 25-607: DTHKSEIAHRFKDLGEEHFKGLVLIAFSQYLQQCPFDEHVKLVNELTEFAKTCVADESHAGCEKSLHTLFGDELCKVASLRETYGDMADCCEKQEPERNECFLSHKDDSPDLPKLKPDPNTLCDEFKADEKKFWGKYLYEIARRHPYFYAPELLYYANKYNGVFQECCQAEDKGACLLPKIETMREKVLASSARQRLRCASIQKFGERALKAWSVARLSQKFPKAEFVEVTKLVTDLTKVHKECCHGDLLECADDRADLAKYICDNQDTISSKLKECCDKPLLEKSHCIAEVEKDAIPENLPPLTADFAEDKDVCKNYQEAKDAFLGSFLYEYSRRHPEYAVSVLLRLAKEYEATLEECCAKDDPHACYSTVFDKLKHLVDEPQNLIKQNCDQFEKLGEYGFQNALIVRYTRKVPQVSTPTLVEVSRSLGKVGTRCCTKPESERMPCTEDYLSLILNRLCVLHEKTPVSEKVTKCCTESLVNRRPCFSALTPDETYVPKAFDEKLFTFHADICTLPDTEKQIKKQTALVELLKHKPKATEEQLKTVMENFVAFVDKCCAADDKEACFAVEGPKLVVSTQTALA
# These are yes or no findings as the source states them, for the method shown. For some assays here: Binding seen in cells or lysates may run through a third protein. Some binding calls cover weakened binding; strength is not graded here. For some assays here: Where a sequence is shown, tags or fusion partners need not be part of it.
# Assays:
# [1] = biological target: T1, N-terminal six histidine tagged P protein of Chandipura virus (His-P) (Chandipura virus) (UniProt P16380); experiment: pull-down; His-tag co-elution: N proteins not treated with DOC incubated with 6×His-P in 50 mM Tris-Cl pH 8, 100 mM NaCl, 0.1% Triton X-100, 10 mM imidazole, 30 min at 4°C; bound to Ni-NTA agarose, eluted with 250 mM imidazole; both purified
# T1 sequence: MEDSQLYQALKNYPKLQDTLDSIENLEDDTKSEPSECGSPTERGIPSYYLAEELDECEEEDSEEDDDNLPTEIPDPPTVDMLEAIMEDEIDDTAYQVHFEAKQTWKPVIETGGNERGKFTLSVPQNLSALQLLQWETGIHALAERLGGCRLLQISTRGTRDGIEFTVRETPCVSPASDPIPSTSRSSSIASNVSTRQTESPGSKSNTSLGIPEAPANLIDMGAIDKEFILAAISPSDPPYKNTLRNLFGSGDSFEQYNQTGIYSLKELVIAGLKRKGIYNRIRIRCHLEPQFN
# [2] = biological target: T2, Chandipura virus P protein, wild-type, untagged, in Vero-76 cells (Chandipura virus) (UniProt P16380); experiment: co-IP; Vero-76 cells co-transfected with 2 µg of each plasmid, labelled with 35S methionine/cysteine 24 h after transfection; lysates precipitated with polyclonal anti-P antibody and Protein-A Sepharose; autoradiography
# T2 sequence: T1 sequence
# [3] = biological target: T1, N-terminal six histidine tagged P protein of Chandipura virus (His-P) (Chandipura virus); experiment: condition: only without DOC pre-treatment (self-associated form); pull-down; His-tag co-elution: N proteins not treated with DOC incubated with 6×His-P in 50 mM Tris-Cl pH 8, 100 mM NaCl, 0.1% Triton X-100, 10 mM imidazole, 30 min at 4°C; bound to Ni-NTA agarose, eluted with 250 mM imidazole; both purified
# [4] = biological target: N(1–320), bacterially expressed (Chandipura virus) (UniProt P11211); experiment: SEC; N(1–320) treated with DOC and DOC removed without P, compared with the untreated sample; data not shown; both purified
# [5] = biological target: T3, Chandipura virus phosphoprotein (P), wild-type, untagged, bacterially expressed (Chandipura virus) (UniProt P16380); experiment: condition: only without DOC pre-treatment (oligomeric N(1–320)); SEC; equimolar N (or N(1–320)) and P incubated 30 min at 4°C in 100 mM NaCl TET buffer, no DOC treatment (N oligomeric); S-200 (10/300); ratio by densitometry of bands; both purified
# T3 sequence: T1 sequence
# [6] = biological target: N(48–422), bacterially expressed (Chandipura virus) (UniProt P11211); experiment: SEC; each purified protein alone on Superdex-200 / S-200 (10/300), 100 mM NaCl TET buffer; oligomerization status from the elution volume; both purified
# [7] = biological target: N(180–422), bacterially expressed (Chandipura virus) (UniProt P11211); experiment: as above
# [8] = biological target: T2, Chandipura virus P protein, wild-type, untagged, in Vero-76 cells (Chandipura virus); experiment: co-sedimentation; 10–60% sucrose step gradient, 16 h at 32000 rpm, 4°C, of the soluble fraction of Vero-76 cells co-transfected 1∶1 with GFP-N and P; fractions blotted with N and P antibodies
# [9] = biological target: N-terminal EGFP tagged wild-type N of Chandipura virus (GFP-N), in Vero-76 cells (Chandipura virus) (UniProt P11211); experiment: as above
substance,measurement,setting,value
Bovine Serum Albumin (from UniProt P02769 25-607),binding,[1],no binding
"GFP-N(1–220), in Vero-76 cells (from UniProt P11211 1-220) (domain or fragment)",binding,[2],binds
"GFP-N(1–320), in Vero-76 cells (from UniProt P11211 1-320) (domain or fragment)",binding,[2],binds
"GFP-N(1–390), in Vero-76 cells (from UniProt P11211 1-390) (domain or fragment)",binding,[2],binds
"GFP-N(22–422), in Vero-76 cells (from UniProt P11211 22-422) (domain or fragment)",binding,[2],binds
"GFP-N(48–422), in Vero-76 cells (from UniProt P11211 48-422) (domain or fragment)",binding,[2],binds
"GFP-N(180–422), in Vero-76 cells (from UniProt P11211 180-422) (domain or fragment)",binding,[2],no binding
"N(1–220), bacterially expressed (from UniProt P11211 1-220) (domain or fragment)",binding,[3],no binding
"N(1–320), bacterially expressed (from UniProt P11211 1-320) (domain or fragment)",binding,[4],binds
same,binding,[3],no binding
same,binding,[5],no binding
"N(48–422), bacterially expressed (from UniProt P11211 48-422) (domain or fragment)",binding,[6],no binding
"N(180–422), bacterially expressed (from UniProt P11211 180-422) (domain or fragment)",binding,[7],no binding
same,binding,[1],no binding
"N-terminal EGFP tagged wild-type N of Chandipura virus (GFP-N), in Vero-76 cells (from UniProt P11211 1-422)",binding,[2],binds
same,binding,[8],binds
same,binding,[9],binds
